According to the supplement of paper PMC8728848:
The other results are listed elsewhere or left out.

How the values were obtained:
Assay in all cases: glycan array binding signal (z-score within array); higher = stronger binding
Settings in all cases: glycan notation: IUPAC condensed, linker removed
[1] = target: Neu5Ac(a2-6)GlcNAc(b1-4)GlcNAc(b1-4)GlcNAc
Summary of the method: (§1)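 Columns mapping to the same glycan were averaged after glycan names were converted to IUPAC-condensed notation. The data come from 3228 arrays in the Consortium for Functional Glycomics database, limited to those with an available protein sequence. Binding is reported as a within-array Z-score averaged across arrays of one protein sequence and across linkers.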

Neu5Ac(a2-8)Neu5Ac = target: Neu5Ac(a2-8)Neu5Ac
Summary of the method: as §1

[2] = target: Neu5Ac(a2-8)Neu5Ac(a2-3)Gal(b1-3)GalNAc(b1-4)[Neu5Ac(a2-3)]Gal(b1-4)Glc
Summary of the method: as §1

[3] = target: Neu5Ac(a2-8)Neu5Ac(a2-3)Gal(b1-3)GalNAc(b1-4)[Neu5Ac(a2-8)Neu5Ac(a2-3)]Gal(b1-4)Glc
Summary of the method: as §1

[4] = target: Neu5Ac(a2-8)Neu5Ac(a2-3)Gal(b1-4)Glc
Summary of the method: as §1

[5] = target: Neu5Ac(a2-8)Neu5Ac(a2-3)Gal(b1-4)GlcNAc
Summary of the method: as §1

[6] = target: Neu5Ac(a2-8)Neu5Ac(a2-3)[Gal(b1-3)GalNAc(b1-4)]Gal(b1-4)Glc
Summary of the method: as §1

[7] = target: Neu5Ac(a2-8)Neu5Ac(a2-3)[GalNAc(b1-4)]Gal(b1-4)Glc
Summary of the method: as §1

[8] = target: Neu5Ac(a2-8)Neu5Ac(a2-8)Neu5Ac
Summary of the method: as §1

[9] = target: Neu5Ac(a2-8)Neu5Ac(a2-8)Neu5Ac(a2-3)Gal(b1-4)Glc
Summary of the method: as §1

[10] = target: Neu5Ac(a2-8)Neu5Ac(a2-8)Neu5Ac(a2-3)[Gal(b1-3)GalNAc(b1-4)]Gal(b1-4)Glc
Summary of the method: as §1

[11] = target: Neu5Ac(a2-8)Neu5Ac(a2-8)Neu5Ac(a2-3)[GalNAc(b1-4)]Gal(b1-4)Glc
Summary of the method: as §1

[12] = target: Neu5Ac(a2-8)Neu5Ac(a2-8)Neu5Ac(a2-8)Neu5Ac(a2-3)[GalNAc(b1-4)]Gal(b1-4)Glc
Summary of the method: as §1

[13] = target: Neu5Ac(a2-8)Neu5Gc(a2-3)Gal(b1-4)GlcNAc
Summary of the method: as §1

[14] = target: Neu5Ac(b2-6)Gal(b1-4)GlcNAc
Summary of the method: as §1

Neu5Ac(b2-6)GalNAc = target: Neu5Ac(b2-6)GalNAc
Summary of the method: as §1

[15] = target: Neu5Ac9Ac(a2-3)Gal(b1-3)GlcNAc
Summary of the method: as §1

[16] = target: Neu5Ac9Ac(a2-3)Gal(b1-4)GlcNAc
Summary of the method: as §1

[17] = target: Neu5Ac9Ac(a2-6)Gal(b1-4)GlcNAc
Summary of the method: as §1

[18] = target: Neu5Gc(a2-3)Gal(b1-3)GlcNAc
Summary of the method: as §1

[19] = target: Neu5Gc(a2-3)Gal(b1-3)[Fuc(a1-4)]GlcNAc
Summary of the method: as §1

Neu5Gc(a2-3)Gal(b1-4)Glc = target: Neu5Gc(a2-3)Gal(b1-4)Glc
Summary of the method: as §1

[20] = target: Neu5Gc(a2-3)Gal(b1-4)GlcNAc
Summary of the method: as §1

[21] = target: Neu5Gc(a2-3)Gal(b1-4)GlcNAc(b1-3)Gal(b1-4)GlcNAc(b1-2)Man(a1-3)[Neu5Gc(a2-3)Gal(b1-4)GlcNAc(b1-3)Gal(b1-4)GlcNAc(b1-2)Man(a1-6)]Man(b1-4)GlcNAc(b1-4)GlcNAc
Summary of the method: as §1

[22] = target: Neu5Gc(a2-3)Gal(b1-4)[Fuc(a1-3)]GlcNAc
Summary of the method: as §1

[23] = target: Neu5Gc(a2-6)Gal(b1-4)GlcNAc
Summary of the method: as §1

Neu5Gc(a2-6)GalNAc = target: Neu5Gc(a2-6)GalNAc
Summary of the method: as §1

[24] = target: Neu5Gc(a2-8)Neu5Ac(a2-3)Gal(b1-4)GlcNAc
Summary of the method: as §1

[25] = target: Neu5Gc(a2-8)Neu5Gc(a2-3)Gal(b1-4)GlcNAc
Summary of the method: as §1

[26] = target: Neu5Gc(a2-8)Neu5Gc(a2-3)Gal(b1-4)GlcNAc(b1-3)Gal(b1-4)GlcNAc
Summary of the method: as §1

[27] = target: Neu5Gc(a2-8)Neu5Gc(a2-6)Gal(b1-4)GlcNAc
Summary of the method: as §1

[28] = target: Neu5Gc(b2-6)Gal(b1-4)GlcNAc
Summary of the method: as §1

B1: Na-CTL-1 (Necator americanus) (protein)
chain: MQRSFLLLLVVLAGAWAVNTTIPLKLMGGFTPMKYQCVGRVSDIWADVLFLIESSDMITKSGFRQVIAFITATTKKMTIGQDEKQTRVGFITYGEEAKLIYDLDHWRSTEKLSDLVQKIPYVKSSGTNIAAAIALANKVFNSPTHRPNVPKVMVIVANGLKKGSQNPIPVATAFKDFGGIIITIEYTQYDNIQVPILKKIASEGYNIRSNDEDFSVRTLTNMLLQANCFCPDHYVPFRVNNPEFGCFVTAKIPSMWRDAAEMCRAVEEGKLVKVENEEKAAFIMKLVGPKKEAWIGLRYYGNKFQWTDGTKLNADDFNLWPEDIKELNGPHCVSMYQDQKDKKYYWRAGKCLEDMRYVCEVQPCSASNYCSEPVFMYRQKHRALLPAPPPPPN
[1]
  glycan array binding signal (z-score): 1.95
Neu5Ac(a2-8)Neu5Ac
  glycan array binding signal (z-score): 0.031
[2]
  glycan array binding signal (z-score): 0.166
[3]
  glycan array binding signal (z-score): 0.93
[4]
  glycan array binding signal (z-score): -0.113
[5]
  glycan array binding signal (z-score): -0.135
[6]
  glycan array binding signal (z-score): 0.484
[7]
  glycan array binding signal (z-score): 0.327
[8]
  glycan array binding signal (z-score): -0.395
[9]
  glycan array binding signal (z-score): -0.34
[10]
  glycan array binding signal (z-score): -0.567
[11]
  glycan array binding signal (z-score): 0.707
[12]
  glycan array binding signal (z-score): 0.689
[13]
  glycan array binding signal (z-score): -0.136
[14]
  glycan array binding signal (z-score): -0.378
Neu5Ac(b2-6)GalNAc
  glycan array binding signal (z-score): -0.431
[15]
  glycan array binding signal (z-score): -0.588
[16]
  glycan array binding signal (z-score): -0.414
[17]
  glycan array binding signal (z-score): -0.318
[18]
  glycan array binding signal (z-score): -0.578
[19]
  glycan array binding signal (z-score): -0.414
Neu5Gc(a2-3)Gal(b1-4)Glc
  glycan array binding signal (z-score): -0.182
[20]
  glycan array binding signal (z-score): -0.098
[21]
  glycan array binding signal (z-score): -0.162
[22]
  glycan array binding signal (z-score): 0.165
[23]
  glycan array binding signal (z-score): 0.081
Neu5Gc(a2-6)GalNAc
  glycan array binding signal (z-score): -0.455
[24]
  glycan array binding signal (z-score): -0.128
[25]
  glycan array binding signal (z-score): -0.553
[26]
  glycan array binding signal (z-score): -0.078
[27]
  glycan array binding signal (z-score): -0.272
[28]
  glycan array binding signal (z-score): -0.163
